This is one part of the list. Rule as the data show it: active = 3.2 or more and inactive = the rest. Only a few entries rise above the background.
Legend:
Experiment in all cases: enrichment score (SH2-bound / input frequency) (ratio); bacterial display of known human phosphotyrosine sites (pTyr-Var adds point mutants) read by sequencing; higher = stronger binding; tyrosines were phosphorylated by kinases first
Settings in all cases: peptide library: pTyr-Var
SHP2 C-SH2 domain E139D = target: SHP2 C-SH2 domain E139D
[1] = target: SHP2 C-SH2 domain wild-type
SHP2 N-SH2 domain L43F = target: SHP2 N-SH2 domain L43F
SHP2 N-SH2 domain T42A = target: SHP2 N-SH2 domain T42A
SHP2 N-SH2 domain T52S = target: SHP2 N-SH2 domain T52S
[2] = target: SHP2 N-SH2 domain wild-type

Measured: enrichment score
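Also: displayed peptides selected on beads carrying the immobilized SH2 domain, with library peptides lacking any tyrosine serving as negative controls.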

B1: HNRNPA2B1_Y306_D302V (peptide)
chain: NVFGNYNQQPS
inactive: SHP2 C-SH2 domain E139D 0.801 | [1] 0.801 | SHP2 N-SH2 domain L43F 0.711 | SHP2 N-SH2 domain T42A 0.782 | SHP2 N-SH2 domain T52S 0.912 | [2] 0.945

B2: HPRT1_Y198_D194E (peptide)
chain: LEYNEYFRDLN
inactive: SHP2 C-SH2 domain E139D 1.03 | [1] 0.897 | SHP2 N-SH2 domain L43F 1.19 | SHP2 N-SH2 domain T42A 1.38 | SHP2 N-SH2 domain T52S 1.17 | [2] 1.52

B3: HS3ST5_Y244 (peptide)
chain: ERWLKYFPIEQ
inactive: SHP2 C-SH2 domain E139D 1.24 | [1] 1.25 | SHP2 N-SH2 domain L43F 1.48 | SHP2 N-SH2 domain T42A 1.46 | SHP2 N-SH2 domain T52S 1.44 | [2] 1.13

B4: HNF4A_Y288_E285Q (peptide)
chain: DNQYAYLKAII
inactive: SHP2 C-SH2 domain E139D 0.776 | [1] 0.745 | SHP2 N-SH2 domain L43F 0.837 | SHP2 N-SH2 domain T42A 0.968 | SHP2 N-SH2 domain T52S 0.751 | [2] 0.543

B5: HRNR_Y517 (peptide)
chain: GSSSSYGQHGS
inactive: SHP2 C-SH2 domain E139D 0.531 | [1] 0.437 | SHP2 N-SH2 domain L43F 0.317 | SHP2 N-SH2 domain T42A 0.377 | SHP2 N-SH2 domain T52S 0.332 | [2] 0.588

B6: HPRT1_Y198_F199V_YF (peptide)
chain: LDFNEYVRDLN
inactive: SHP2 C-SH2 domain E139D 0.833 | [1] 0.862 | SHP2 N-SH2 domain L43F 0.858 | SHP2 N-SH2 domain T42A 0.692 | SHP2 N-SH2 domain T52S 0.731 | [2] 0.836

B7: HNRNPF_Y82_K87R (peptide)
chain: SMGHRYIEVFR
inactive: SHP2 C-SH2 domain E139D 1.08 | [1] 1.57 | [2] 1.82
active: SHP2 N-SH2 domain L43F 3.28 | SHP2 N-SH2 domain T42A 4.5 | SHP2 N-SH2 domain T52S 4.69

B8: HSPA1A_Y107_E110D (peptide)
chain: KVQVSYKGDTK
inactive: SHP2 C-SH2 domain E139D 0.856 | [1] 0.65 | SHP2 N-SH2 domain L43F 0.948 | SHP2 N-SH2 domain T42A 0.493 | SHP2 N-SH2 domain T52S 0.73 | [2] 0.734

B9: HRC_Y99 (peptide)
chain: DVSKEYGHLLP
inactive: SHP2 C-SH2 domain E139D 0.668 | [1] 0.609 | SHP2 N-SH2 domain L43F 0.454 | SHP2 N-SH2 domain T42A 0.642 | SHP2 N-SH2 domain T52S 0.725 | [2] 0.68

B10: HNRNPA1_Y312 (peptide)
chain: GGGGSYNDFGN
inactive: SHP2 C-SH2 domain E139D 0.574 | [1] 0.679 | SHP2 N-SH2 domain L43F 0.54 | SHP2 N-SH2 domain T42A 0.574 | SHP2 N-SH2 domain T52S 0.488 | [2] 0.984

B11: HS6ST3_Y323_V320M (peptide)
chain: SLMGCYNLTFM
inactive: SHP2 C-SH2 domain E139D 1.1 | [1] 1.34 | SHP2 N-SH2 domain L43F 0.909 | SHP2 N-SH2 domain T42A 0.852 | SHP2 N-SH2 domain T52S 1.08 | [2] 1.31

B12: HNF4A_Y286_E285Q_YF (peptide)
chain: IDDNQYAFLKA
inactive: SHP2 C-SH2 domain E139D 0.621 | [1] 0.688 | SHP2 N-SH2 domain L43F 0.714 | SHP2 N-SH2 domain T42A 0.57 | SHP2 N-SH2 domain T52S 0.753 | [2] 0.662

B13: HSP90AB1_Y512_M513V (peptide)
chain: GFEVVYVTEPI
inactive: SHP2 C-SH2 domain E139D 0.746 | [1] 0.659 | SHP2 N-SH2 domain L43F 0.722 | SHP2 N-SH2 domain T42A 0.698 | SHP2 N-SH2 domain T52S 0.785 | [2] 1.08

B14: HP_Y272 (peptide)
chain: LPSKDYAEVGR
inactive: SHP2 C-SH2 domain E139D 0.587 | [1] 0.606 | SHP2 N-SH2 domain L43F 0.533 | SHP2 N-SH2 domain T42A 0.7 | SHP2 N-SH2 domain T52S 0.483 | [2] 0.862

B15: HS6ST3_Y323 (peptide)
chain: SLVGCYNLTFM
inactive: SHP2 C-SH2 domain E139D 0.899 | [1] 1.25 | SHP2 N-SH2 domain L43F 1.07 | SHP2 N-SH2 domain T42A 0.944 | SHP2 N-SH2 domain T52S 1.01 | [2] 1.51

B16: HP_Y280_G276R (peptide)
chain: VRRVGYVSGWG
inactive: SHP2 C-SH2 domain E139D 0.583 | [1] 0.595 | SHP2 N-SH2 domain L43F 0.489 | SHP2 N-SH2 domain T42A 0.447 | SHP2 N-SH2 domain T52S 0.521 | [2] 0.568

B17: HPRT1_Y198 (peptide)
chain: LDYNEYFRDLN
inactive: SHP2 C-SH2 domain E139D 0.951 | [1] 0.603 | SHP2 N-SH2 domain L43F 0.78 | SHP2 N-SH2 domain T42A 0.717 | SHP2 N-SH2 domain T52S 0.683 | [2] 0.693

B18: HOXB7_Y6_YF (peptide)
chain: MSSLFYANTLF
inactive: SHP2 C-SH2 domain E139D 0.802 | [1] 0.711 | SHP2 N-SH2 domain L43F 0.868 | SHP2 N-SH2 domain T42A 0.916 | SHP2 N-SH2 domain T52S 0.786 | [2] 0.886

B19: HNRNPA2B1_Y300_D302V_YF (peptide)
chain: FGSGNYNVFGN
inactive: SHP2 C-SH2 domain E139D 1.05 | [1] 0.892 | SHP2 N-SH2 domain L43F 0.658 | SHP2 N-SH2 domain T42A 0.806 | SHP2 N-SH2 domain T52S 0.793 | [2] 0.644

B20: HSPA9_Y128 (peptide)
chain: LIGRRYDDPEV
inactive: SHP2 C-SH2 domain E139D 0.232 | [1] 0.361 | SHP2 N-SH2 domain L43F 0.186 | SHP2 N-SH2 domain T42A 0.366 | SHP2 N-SH2 domain T52S 0.337 | [2] 0.316

B21: HRAS_Y64 (peptide)
chain: AGQEEYSAMRD
inactive: SHP2 C-SH2 domain E139D 0.559 | [1] 0.611 | SHP2 N-SH2 domain L43F 0.602 | SHP2 N-SH2 domain T42A 0.624 | SHP2 N-SH2 domain T52S 0.555 | [2] 0.638

B22: HNRNPA1_Y341_P340S (peptide)
chain: RSSGSYGGGGQ
inactive: SHP2 C-SH2 domain E139D 0.605 | [1] 0.581 | SHP2 N-SH2 domain L43F 0.569 | SHP2 N-SH2 domain T42A 0.44 | SHP2 N-SH2 domain T52S 0.431 | [2] 0.712

B23: HNRNPA2B1_Y306 (peptide)
chain: NDFGNYNQQPS
inactive: SHP2 C-SH2 domain E139D 0.752 | [1] 0.603 | SHP2 N-SH2 domain L43F 0.629 | SHP2 N-SH2 domain T42A 0.551 | SHP2 N-SH2 domain T52S 0.636 | [2] 0.633

B24: HPRT1_Y198_D194E_YF (peptide)
chain: LEFNEYFRDLN
inactive: SHP2 C-SH2 domain E139D 0.981 | [1] 0.853 | SHP2 N-SH2 domain L43F 1.22 | SHP2 N-SH2 domain T42A 0.837 | SHP2 N-SH2 domain T52S 0.886 | [2] 0.789

B25: HOXB7_Y6_T9A_YF (peptide)
chain: MSSLFYANALF
inactive: SHP2 C-SH2 domain E139D 1.02 | [1] 0.961 | SHP2 N-SH2 domain L43F 1.21 | SHP2 N-SH2 domain T42A 1.29 | SHP2 N-SH2 domain T52S 1.37 | [2] 0.957

B26: HPRT1_Y198_Y195C (peptide)
chain: LDCNEYFRDLN
inactive: SHP2 C-SH2 domain E139D 1.55 | [1] 0.965 | SHP2 N-SH2 domain L43F 1.07 | SHP2 N-SH2 domain T42A 0.993 | SHP2 N-SH2 domain T52S 0.999 | [2] 1.16

B27: HRAS_Y64_E63K (peptide)
chain: AGQEKYSAMRD
inactive: SHP2 C-SH2 domain E139D 0.519 | [1] 0.631 | SHP2 N-SH2 domain L43F 0.571 | SHP2 N-SH2 domain T42A 0.467 | SHP2 N-SH2 domain T52S 0.653 | [2] 0.664

B28: HNRNPH3_Y161 (peptide)
chain: YNNYGYGNDGF
inactive: SHP2 C-SH2 domain E139D 0.879 | [1] 0.725 | SHP2 N-SH2 domain L43F 0.709 | SHP2 N-SH2 domain T42A 0.861 | SHP2 N-SH2 domain T52S 0.589 | [2] 0.819

B29: HNRNPA2B1_Y300_D302V (peptide)
chain: YGSGNYNVFGN
inactive: SHP2 C-SH2 domain E139D 0.858 | [1] 0.554 | SHP2 N-SH2 domain L43F 0.705 | SHP2 N-SH2 domain T42A 0.773 | SHP2 N-SH2 domain T52S 0.641 | [2] 0.794

B30: HNRNPA1_Y318_N319S (peptide)
chain: NDFGNYSNQSS
inactive: SHP2 C-SH2 domain E139D 0.472 | [1] 0.358 | SHP2 N-SH2 domain L43F 0.4 | SHP2 N-SH2 domain T42A 0.492 | SHP2 N-SH2 domain T52S 0.444 | [2] 0.4

B31: HOXB7_Y6 (peptide)
chain: MSSLYYANTLF
active: SHP2 N-SH2 domain L43F 4.52 | SHP2 N-SH2 domain T42A 4.59 | SHP2 N-SH2 domain T52S 5.11
inactive: SHP2 C-SH2 domain E139D 1.63 | [1] 1.51 | [2] 1.94

B32: HNRNPH2_Y210_P209L (peptide)
chain: QRPGLYDRPGA
inactive: SHP2 C-SH2 domain E139D 0.635 | [1] 0.783 | SHP2 N-SH2 domain L43F 0.683 | SHP2 N-SH2 domain T42A 0.701 | SHP2 N-SH2 domain T52S 0.607 | [2] 0.597

B33: HSPA1A_Y107 (peptide)
chain: KVQVSYKGETK
inactive: SHP2 C-SH2 domain E139D 0.951 | [1] 0.624 | SHP2 N-SH2 domain L43F 0.753 | SHP2 N-SH2 domain T42A 0.602 | SHP2 N-SH2 domain T52S 0.782 | [2] 0.87

B34: HNRNPA1_Y318_D314V (peptide)
chain: NVFGNYNNQSS
inactive: SHP2 C-SH2 domain E139D 1.26 | [1] 0.963 | SHP2 N-SH2 domain L43F 0.81 | SHP2 N-SH2 domain T42A 0.829 | SHP2 N-SH2 domain T52S 0.805 | [2] 1.2

B35: HPRT1_Y198_D201G_YF (peptide)
chain: LDFNEYFRGLN
inactive: SHP2 C-SH2 domain E139D 0.886 | [1] 1.01 | SHP2 N-SH2 domain L43F 0.796 | SHP2 N-SH2 domain T42A 0.967 | SHP2 N-SH2 domain T52S 0.926 | [2] 0.832

B36: HPRT1_Y81_L78V (peptide)
chain: ADVLDYIKALN
inactive: SHP2 C-SH2 domain E139D 0.943 | [1] 0.686 | SHP2 N-SH2 domain L43F 1.15 | SHP2 N-SH2 domain T42A 0.854 | SHP2 N-SH2 domain T52S 0.799 | [2] 0.736

B37: HNRNPA2B1_Y300 (peptide)
chain: YGSGNYNDFGN
inactive: SHP2 C-SH2 domain E139D 0.958 | [1] 0.722 | SHP2 N-SH2 domain L43F 0.686 | SHP2 N-SH2 domain T42A 0.554 | SHP2 N-SH2 domain T52S 0.655 | [2] 0.879

— the supplement of paper PMC10369915
